Data from the supplement of paper PMC3334620.
Whole data set: some 33,000 sequences, median “E-score (-0.5 to 0.5)” near -0.01, cut for the highest 2% near 0.26. Some of the results follow.

target: Ste12 (UniProt P13574); test: PBM E-score (8-mer binding enrichment) (E-score (-0.5 to 0.5)); higher = stronger / more preferred TF binding; most listed sequences are background and not binding sites; conditions: protein concentration: 200 nM; construct: GST-DNA-binding domain
Outline: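 E-scores (a modified Wilcoxon-Mann-Whitney statistic) were assigned by the Universal PBM Analysis Suite to every ungapped eight-base word pooled with its reverse complement. The input came from universal all-10-mer Agilent arrays made double-stranded by primer extension and probed with GST-tagged yeast transcription factors at about 100-200 nM. Fluorescent anti-GST detected bound protein, and masliner normalised the scans.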

Row | Sequence | PBM E-score
1 | CCCGTAAA | 0.0878
2 | GGCTTGTA | 0.0721
3 | ACATGGGA | 0.131
4 | ATTACTAG | -0.0476
5 | GAAGGGGA | -0.00677
6 | ATTCCTGG | 0.124
7 | GCGGCCAA | 0.0675
8 | ATGCCGTA | -0.0947
9 | CGCATTGC | 0.0291
10 | AAGTACCG | -0.0593
11 | CACGCCTG | -0.0939
12 | CTGAACGA | -0.167
13 | AGACAGCC | -0.0343
14 | CCCTTTAA | -0.118
15 | TATACGGA | -0.209
16 | AAGTTCTC | -0.0252
17 | AGTAAGCG | -0.102
18 | TATGCTAA | 0.0339
19 | CCACCGTC | -0.045
20 | CGGATCAC | 0.0938
21 | GCCTTACA | -0.0389
22 | CCATCCGC | -0.0933
23 | AAGTTTGT | 0.2
24 | AAGGATTG | -0.1
25 | ACATCGTG | 0.0408

Row | Sequence | PBM E-score
26 | AGCACCAA | -0.0159
27 | AACCGATC | -0.047
28 | GTCACATA | 0.183
29 | CATCTCAC | -0.00516
30 | CTCTCTCA | -0.02
31 | CTCCGGCC | -0.232
32 | CACACACC | -0.0676
33 | GAGCCGAA | 0.0586
34 | AAGGGAAT | -0.111
35 | ACTGACAC | -0.0722
36 | ATTCCACC | 0.113
37 | ATGCAGGC | -0.0785
38 | CGATCCAC | -0.165
39 | AAAGAGGC | -0.229
40 | TGGCGTAA | -0.158
41 | CCTCAAGG | -0.26
42 | CAAGGCAG | -0.0826
43 | AGGCGTGA | -0.0487
44 | ACGAGGAC | -0.156
45 | CGCACTAA | -0.00824
46 | CGTATCGC | 0.0593
47 | TACAGCCA | -0.121
48 | TTCCACAA | 0.238
49 | CGTAATAA | 0.186
50 | GCCCCCAC | -0.181

Row | Sequence | PBM E-score
51 | CTCCTCTC | -0.161
52 | ATCGAAGA | 0.0371
53 | ATTTCGCC | 0.121
54 | CGTTTCTA | 0.166
55 | ATCATGAG | 0.0432
56 | GATACCTA | 0.169
57 | CGGTTGCA | -0.159
58 | ACGAATCG | -0.0508
59 | CGGAGCCG | -0.0642
60 | GATACAGA | 0.118
61 | AGCGAACG | -0.157
62 | AGCTACAC | -0.0604
63 | CGGCTGAC | 0.0126
64 | CTTCTCGC | 0.015
65 | TCCAGTAA | -0.172
66 | TACTAGCA | -0.014
67 | AGTGTTTG | 0.245
68 | CTTAGGAC | -0.03
69 | CCCACGAA | 0.168
70 | CGCCGTGC | -0.0554
71 | AATCCTGG | 0.0608
72 | GATAGGTA | -0.125
73 | GCTCGCGA | 0.195
74 | ACATTTAG | -0.0629
75 | TCGATCGA | -0.0177

Row | Sequence | PBM E-score
76 | ACGATGTC | -0.136
77 | AGCGTTAT | 0.0698
78 | CCAAGATA | 0.0411
79 | AACTGGCC | -0.0398
80 | AAACCCTT | 0.0361
81 | GATATCTA | 0.115
82 | CATCGCCA | 0.0243
83 | GTTCTCTA | -0.0407
84 | CGCTTAGA | -0.0481
85 | GAAGGTGC | -0.0511
86 | CATGCCAG | 0.0469
87 | CTGTTGGC | -0.0696
88 | AGTTCTAT | 0.0382
89 | ATGCGGAG | -0.302
90 | ACAACATG | 0.0765
91 | ACGAGTGA | 1e-05
92 | TCGTTAGA | -0.0655
93 | GTAACTTA | 0.073
94 | GGTTTCAC | 0.386
95 | GGCTGGGA | -0.0243
96 | GCCTCTCA | -0.248
97 | CATCCCGA | -0.00385
98 | GTATAAAA | 0.241
99 | ACACCTAT | 0.0295
100 | TGTTAGAA | 0.158

Row | Sequence | PBM E-score
101 | AGACGTAC | -0.0648
102 | AACCTCTC | -0.0548
103 | AACGGCCG | 0.146
104 | CCCAGGCA | -0.104
105 | CGATACTC | -0.0354
106 | CCGTGAGG | -0.125
107 | CGTACCAC | -0.0892
108 | GCTACCCC | -0.221
109 | AACACCTA | 0.0605
110 | CACGCAAC | 0.0403
111 | ACGGTCAC | -0.114
112 | CCCATGCC | -0.0852
113 | CAGCAGCC | -0.0193
114 | GACACACA | 0.137
115 | ATCCGCCC | 0.0265
116 | ACGCCACG | -0.182
117 | CCGCCAGA | 0.0807
118 | CAGAAGGG | -0.17
119 | CGCGCGAC | 0.111
120 | AAAGGGGA | -0.0964
121 | TCCGAACA | 0.0115
122 | ACACTGTG | 0.0657
123 | ACACGCAC | -0.255
124 | TCTTAGCA | -0.0313
125 | AGTAAGTG | -0.0738

Row | Sequence | PBM E-score
126 | AGTGACCA | -0.0297
127 | GGCGCGAA | 0.0543
128 | GTGAACAC | -0.108
129 | ATATATTA | 0.185
130 | ATGGACGG | -0.00997
131 | AGGCAAGG | -0.273
132 | CGGCAGGC | -0.151
133 | ACATATAC | 0.0437
134 | ACTGGGAT | 0.00537
135 | CGATGGAG | -0.0853
136 | CGTACGAC | -0.194
137 | CAGATCAC | -0.17
138 | GGAGTCGA | 0.0751
139 | CGTAATTA | -0.0592
140 | GTGATTCA | 0.0424
141 | GGTAGTTA | -0.0199
142 | ACGCTGGG | -0.238
143 | CGGCGGGC | 0.021
144 | CAAATACC | 0.185
145 | CCGCTGCC | -0.163
146 | ATGCGAGA | -0.0269
147 | ACGACGCC | -0.118
148 | AAACCTTA | 0.247
149 | AAACTATA | 0.141
150 | ACTACGTG | -0.283

Row | Sequence | PBM E-score
151 | CATCAAAG | 0.0187
152 | AGCTAAAG | -0.0673
153 | GGCTGCGA | 0.196
154 | CAGTCCGC | -0.178
155 | CACCGTGG | -0.0761
156 | AGCAAATG | -0.0505
157 | GGCATTAC | 0.0694
158 | TAGAGACA | -0.064
159 | ATCCTGTA | -0.0955
160 | GAGATCTC | -0.14
161 | GGCTTTAA | 0.0191
162 | CTGCGTCC | -0.0984
163 | CAATCGGG | -0.0207
164 | ATACTAAA | 0.214
165 | AGCCAAAC | 0.207
166 | CGAATCTC | -0.00505
167 | ATCGTGAG | -0.243
168 | CGCGTCAA | 0.0957
169 | CTACAGAG | -0.0766
170 | GGAATATA | 0.215
171 | GCACGCAA | -0.0539
172 | CGCCTAGC | -0.0616
